Measurements taken from PubChem BioAssay AID686971 (National Center for Advancing Translational Sciences (NCATS), 2013).
Among all 360,000 compounds or so, about 7,500 (2.1%) were called active. The shares of active, inactive and inconclusive entries below differ from those in the screen. Calls come from the whole dose curve; as a rule, active = well fitted cell-killing curve with a large enough effect; inconclusive = small, poorly fitted or top-dose-only effect, or effect the other way, or another doubt; inactive = no such curve, though single readings can be large or run the other way. No potency is given beside an inconclusive call; the fits are too rough.

assay: qHTS for induction of synthetic lethality in tumor cells producing 2HG: qHTS for the HT-1080-IDH1KD cell line; settings: HT-1080 IDH1 knockdown viability, ATP luminescence, 48 h; activity, negative = toxicity: at 46.1 µM (top of the series) unless noted;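 for activity, negative = toxicity: 0% = DMSO wells and -100% = cell-free medium wells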
Method in brief: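 Assay cells: HT-1080 with IDH1 knockdown, 750 per well, RPMI/5% FBS. Exposure: 48 h at 37 °C following 2 h pre-incubation. Read: CellTiter-Glo luminescence; fitted concentration-response, curve class assigned.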
Potency is the fitted concentration of half-maximal effect; tags give direction and shape of the fitted curve.

Row | SMILES | Potency | activity, negative = toxicity
1 | Cc1ccc(NC(=O)CSc2ccc(-c3ccccn3)nn2)cc1 | inconclusive [cytotoxic, partial curve] | –
2 | Cc1ccc(SC2=C(C(=O)O)CCCC2)cc1 | – | inactive: 14.8%
3 | C/C=C(\CS(=O)(=O)c1ccccc1)S(=O)(=O)c1ccccc1 | inconclusive [cytotoxic, single point] | –
4 | Fc1cccc2sc(Nc3nc4cc5c(cc4s3)OCCO5)nc12 | inconclusive [cytotoxic, single point] | –
5 | COc1ccc(CCN2C(=O)CC(N3CCN(S(=O)(=O)c4ccccc4)CC3)C2=O)cc1OC (stereo not drawn) | – | inactive: 2.11%
6 | CC(=O)Nc1ccccc1OCCCN1CCC(C(O)(c2ccccc2)c2ccccc2)CC1 | inconclusive [cytotoxic, single point] | –
7 | O=S(=O)(Nc1ccc2c(c1)oc1ccccc12)N1CCCC1 | inconclusive [cytotoxic, single point] | –
8 | C=CCNc1nc(N2CCCC2)nc2ccccc12 | inconclusive [cytotoxic, partial curve, poor fit] | –
9 | NC(=S)N/N=C/c1ncc(C(F)(F)F)cc1Cl | active: 5.17 µM | –
10 | COc1ccc(-c2cc(C(=O)NNC(=O)c3csc(N4CCOCC4)n3)c3ccccc3n2)cc1 | – | inactive: -7.21%
11 | CN(C)CCCNc1nc2cc(-c3cnn(Cc4ccccc4)c3)sc2c(=O)n1C | active: 23.1 µM | –
12 | CCOc1cc(NC(=S)NCc2ccco2)c(OCC)cc1NC(=O)CC | inconclusive [cytotoxic, single point] | –
13 | C=CCNC(=S)N1CCN(CCN=Cc2c(C)[nH]n(-c3ccc([N+](=O)[O-])cc3)c2=O)CC1 | – | inconclusive: -30.1% [cytotoxic]
14 | OC(CNCCc1ccc(Cl)cc1)COc1ccc2ccccc2c1 (stereo not drawn) | inconclusive [cytotoxic, single point] | –
15 | Cc1cc(CN(C)C(=O)c2cc(COc3ccc4ncccc4c3)on2)on1 | inconclusive [cytotoxic, partial curve] | –
16 | COc1ccccc1N1CCN(CCCCOc2ccc(F)cc2)CC1 | inconclusive [cytotoxic, single point] | –
17 | O=C(CN1CCN(C/C=C/c2ccccc2)CC1)NCc1ccc(Cl)cc1 | inconclusive [cytotoxic, single point] | –
18 | Fc1ccc2nc(Nc3nc4cc5c(cc4s3)OCO5)sc2c1 | inconclusive [cytotoxic, single point] | –
19 | CN(C)c1ccc(/C=N/NC(=O)C(=O)/C=C2\NC3(CCCC3)Cc3ccccc32)cc1 | – | inactive: -16.4%
20 | Cc1ccc2[nH]c(=O)c(C(c3nnnn3CC3CCCO3)N3CCCc4ccccc43)cc2c1 (stereo not drawn) | inconclusive [cytotoxic, single point] | –
21 | O=C(NCc1cccc(Cl)c1)C1Cc2c(-c3cccc(F)c3)ccnc2O1 (stereo not drawn) | inconclusive [cytotoxic, single point] | –
22 | COc1ccc(/C=N/NC(=O)c2nc(-c3ccccc3)cc(-c3ccccc3)n2)cc1O | inconclusive [cytotoxic, single point] | –
23 | COc1ccc(C(C(=O)NC(C)(C)C)n2c(=O)c(-c3ccco3)nc3ccccc32)cc1 (stereo not drawn) | inconclusive [cytotoxic, single point] | –
24 | OC1CNc2c(ccc3ccccc23)C1 (stereo not drawn) | – | inactive: 11.5%

Row | SMILES | Potency | activity, negative = toxicity
25 | N#CCc1ccc(OC(=O)c2ccncc2)cc1 | – | inactive: 1.44%
26 | Cc1nc(N2CCN(c3ccccc3)CC2)[nH]c(=O)c1C | – | inconclusive: 14.1%
27 | C=CC(=O)N1C/C(=C/c2ccccc2)C(=O)/C(=C\c2ccccc2)C1 | active: 4.11 µM | –
28 | CCOC(=O)C1CCN(C(=O)CSc2nnc(-c3ccco3)n2-c2ccccc2)CC1 | – | inactive: 5.18% [at 9.24 µM]
29 | CCOc1ccc(-c2cccc(NC(=O)c3ccc(Br)o3)c2)nn1 | – | inactive: -0.0007%
30 | CCCc1nc2ccc(C)cn2c1Cc1ccc(OC)cc1C | – | inactive: -29.4%
31 | Cc1ccccc1Cn1cc(NC(=O)c2noc3c2CC(C(C)(C)C)CC3)cn1 (stereo not drawn) | inconclusive [cytotoxic, single point] | –
32 | Cc1nnc(N=c2ssnc2Cl)o1 | – | inactive: -2.66%
33 | O=C(CN1CCC(Cc2ccccc2)CC1)NCCc1ccc(F)cc1 | – | inactive: -20.5%
34 | NCCCC[C@H]1CN=C(N)N1CC1CCCCC1 | – | inactive: 4.08%
35 | CS(=O)(=O)NNC(=O)Cn1nnc(-c2ccc(OCc3ccccc3Cl)cc2)n1 | – | inactive: 1.89%
36 | Cc1c(-n2c(O)c(C3=c4ccccc4=NC3=O)sc2=O)c(=O)n(-c2ccccc2)n1C | inconclusive [cytotoxic, partial curve] | –
37 | CCc1cc(C(=O)Cc2ccc(F)cc2)c(O)cc1O | inconclusive [cytotoxic, single point] | –
38 | COc1ccc(C(C)=O)cc1CSc1nnc(-c2ccc(Cl)cc2)n1-c1ccccc1 | inconclusive [cytotoxic, single point] | –
39 | COc1cccc(-c2c(C(=O)N/N=C/c3ccco3)nnn2-c2nonc2N)c1 | – | inactive: -3.06%
40 | O=C(NNc1nc2c(F)cccc2s1)c1ccc(F)cc1 | inconclusive [cytotoxic, single point] | –
41 | COc1ccc(C(=S)N2CCN(c3ccccc3Cl)CC2)cc1OC | – | inactive: -4.2%
42 | COc1ccc(-c2nc(N3CCOCC3)nc3n[nH]c(N)c23)cc1 | – | inconclusive: -33.2% [cytotoxic]
43 | Cc1ccc(-n2nc3c(=O)n(CC(=O)NCCCc4ccccc4)nc(C)c3c2C)cc1 | – | inconclusive: 0% [cytotoxic]
44 | Cc1ccccc1CN1CCC(CNC(=O)C2CCCN(c3ncnc4c3nc3n4CCCCC3)C2)CC1 (stereo not drawn) | inconclusive [cytotoxic, single point] | –
45 | Nc1ncnc(N)c1N=Nc1ccccc1 | active: 11.6 µM | –
46 | Cc1ccccc1Cn1c2ccccc2c2cnn(CC(=O)NCc3ccccn3)c(=O)c21 | inconclusive [cytotoxic, single point] | –
47 | COc1ccc(C2=C(N)c3ccccc3C2=O)cc1 | inconclusive [cytotoxic, single point] | –
48 | C[C@@H]1CNC(=O)c2c(C(=O)N[C@H](C)c3ccccc3)ncn21 | – | inactive: 3.08%
